The values below come from PubChem BioAssay (NCI).

Molecules are shown by their SMILES.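 1) Cells in 96-well plates. 2) Compound, 48 h, 5 concentrations. 3) Linear interpolation between surrounding doses. 4) Unreached endpoint = highest concentration. GI50 = concentration required for 50% inhibition of growth. TGI is the concentration that stops growth completely.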 Numbered stars: 1 amine (or outer) side, 2 acyl side, 3 side chain; on linkers, the order of the positions; unused ones are H or OH. Square brackets hold non-standard residues; d marks the D form. Peptide text beside a SMILES is read from it. * marks the point of attachment. X27 = CC(=O)N(C)SCC(N[*:1])C(=O)[*:2]; Fmoc = O=C(OCC1c2ccccc2-c2ccccc21)*; For = O=C*

The test system of this assay is NCI-H322M lung. Put plainly: NCI anticancer screen, dose series, 48 h.
For `CC(=O)n1c(-c2ccc(Cl)c(Cl)c2)cn(-c2ccc(Cl)cc2)c1=O`, the GI50 is 52.6 µM and the TGI was > 100 µM.
On to `COc1cc2nncc(SCc3ccc(Cl)c(Cl)c3)c2cc1OC`, for which the TGI is > 100 µM.
On to `CNc1ncc2cc(Oc3ccc(F)cc3F)c(=O)n(C)c2n1`, for which the GI50 was > 25 µM and the TGI was > 25 µM.
On to `CCOC(=O)/C(=N/Nc1ccc(Cl)cc1)N1C(=S)C=C(C)NN(C)C1=S`, for which the TGI was > 100 µM.
In the case of `CCCCCCCCCCCCCCCCCc1nnc(N)o1`, the TGI was > 100 µM.
Consider `O=c1cc(-c2ccc(O)cc2)oc2cc(O)cc(O)c12`, for which the TGI is > 100 µM.
Same read-out and setting: the figure for `O=C1c2c(ccc3c2CCCC3)CC1Cc1ccc2c(c1)CCCC2` (stereo unspecified) is > 100 µM; for `N#CC(C(=O)CCC(=O)Nc1ccc(Cl)c(Cl)c1)c1ccc(Cl)cc1` (stereo unspecified) it is > 100 µM; for `CCOP(=O)(OCC)C(=C1C=C(C(C)(C)C)C(=O)C(C(C)(C)C)=C1)P(=O)(OCC)OCC` it is > 10 µM.
Take `Cc1cccc(N=C2NC(=O)C(CC(=O)Nc3ccccc3Cl)S2)c1` (stereo unspecified): the TGI was > 100 µM.
In the case of `Oc1ccccc1-n1nc2ccc3nonc3c2n1`, the TGI is > 100 µM.
Regarding `Cc1ccccc1NC(=O)CSc1nnc(Cc2ccccc2)o1`, the TGI was > 100 µM.
With `Cc1cn(Cc2ccccc2CCl)c(=O)n(Cc2ccccc2CCl)c1=O`, the GI50 was 2.43 µM and the TGI is 5.7 µM.
With `COc1cc(/C=C\c2ccc(Cl)cc2)cc(OC)c1OC`, the TGI is > 50.1 µM.
Consider `O=C(Nc1ccc(S(=O)(=O)Nc2ncccn2)cc1)c1c2ccccc2nc2ccccc12`, for which the TGI is > 100 µM.
`O=C1Nc2ccc(Br)cc2/C1=C/C(=O)c1ccccc1` yielded a TGI of 31.1 µM.
Take `COC1(Cc2ccccc2)C(=O)c2ccccc2N1C(C)=O` (stereo unspecified): the TGI is > 100 µM.
Same read-out and setting: under `N#CCN(Cc1ccccc1)[C@@H]1CCC[C@]1(O)C#Cc1ccc2c(c1)OCO2` stands 39 µM.
For `CCc1nc(N)nc(N)c1C#CC(C)c1cc(-c2ccnc(C)c2)c2oc(C)nc2c1` (stereo unspecified), the GI50 was < 0.026 µM and the TGI is 14.4 µM.
For the molecule `CN(C)C(=O)Oc1ccc(C(=S)Nc2ccccc2)cc1Br`, the TGI is > 100 µM.
In the case of `COc1ccc(OC)c(/C=N/N=C2\C(=O)Nc3c(Cl)cc(Cl)cc32)c1`, the TGI was > 100 µM.
As for `O=C(CN1C(=O)S/C(=C\C(Cl)=C\c2ccccc2)C1=O)NCCCn1ccnc1`, the GI50 is 3.98 µM and the TGI was 20.1 µM.
Take `Cc1ccc(-c2c3c(N)c4c(nc3nc3c2c(C)nn3-c2ccccc2)CCC4)cc1`: the GI50 is 3.35 µM and the TGI turned out to be 11.2 µM.
`CC(=O)O[C@H]1CC[C@@]2(C)C(=C/C(=N\[N+](=O)[O-])[C@H]3C4CCC([C@H](C)CCCC(C)C)[C@@]4(C)CCC32)C1` (stereo partly specified): the TGI is > 100 µM.
As for `CC(=O)NC1C(OCc2ccccc2)OC(CO)C(O)C1OCC(=O)N1CCCC1C(=O)NC(CCC(=O)NCCCCCNc1c2ccccc2nc2cccc([N+](=O)[O-])c12)C(N)=O` (stereo unspecified), the TGI worked out at 0.464 µM.
Turning to `COc1ccc(/C=C(\Cl)c2ccc(OC)cc2)cc1`, the TGI was > 100 µM.
In the case of `Nc1cc(-c2ccccc2)n(C(=O)Nc2ccc(Oc3ccccc3)cc2)n1`, the GI50 is > 100 µM and the TGI was > 100 µM.
For the molecule `CC1=C(C(=O)Nc2ccccc2C)C(c2ccccc2C)C(C(=O)Nc2ccccc2C)=C(C)N1`, the TGI was > 100 µM.
`COc1ccccc1Cn1[nH]c(=O)c2cc([N+](=O)[O-])ccc21`: the TGI was > 100 µM.
Turning to `COC1OC(C(C)O)C2OC(C)(C)OC12` (stereo unspecified), the TGI is > 100 µM.
Regarding `COc1cc(NC(=O)c2cc(O)c(C/C=C(\C)CCC=C(C)C)c(O)c2)cc2c1O[C@]1(C)CC[C@@H](O)C(C)(C)[C@H]1C2`, the GI50 is 3.18 µM and the TGI came to 14.8 µM.
As for `CCCc1cc(-c2ccc(-c3cc(CCC)c(C=O)[nH]3)s2)[nH]c1C=O`, the TGI was > 100 µM.
In the case of `CC(C)c1cccc(C(C)C)c1NC(=O)C(=O)C1SC(=S)NC1=O` (stereo unspecified), the TGI was > 100 µM.
`Cc1ccc(S(=O)(=O)Nc2cc(Sc3ccccc3)c(O)c3ccccc23)cc1`: the GI50 was 15.5 µM and the TGI is 29.3 µM.
The molecule `CCOC(=O)Oc1ccc2c(c1)c(=O)c1c(NCCCN(CC)CC)ccc3nnn2c31` registered a TGI of 19.1 µM.
Take `C/C(=N\NC(=S)Nc1ccc(Cl)cc1)c1nc2ncccc2[nH]1`: the TGI came to 38.7 µM.
The same measure, in the same setting: the figure for `C=C(CC)C[C@@H]1C[C@]2(C(=O)OC)c3[nH]c4ccccc4c3CCN2C1=O` is 69.6 µM; for `CC/C=C/C(/C=C/C[C@]1(CC)C[C@H](CC)[C@H](CC(=O)O)OO1)CC` (stereo partly specified) it is 15.7 µM.
`NCCSC(C[N+](=O)[O-])c1ccccc1Cl` (stereo unspecified): the GI50 was 16.5 µM and the TGI stood at 32.1 µM.
On to `COc1cc2c(cc1OCCCCCn1c3ccccc3c3ccccc31)N=C[C@@H]1CCCN1C2=O`, for which the GI50 was 3.83 µM and the TGI came to 16.3 µM.
For `CC(Cc1ccc2c(c1)OCO2)N(C)C(=O)C1=CCN(C)CC1` (stereo unspecified), the TGI was > 100 µM.
On the same count and under the same terms, the figure for `Cc1ccc(Nc2cn(COCc3ccccc3)c(=O)[nH]c2=O)cc1` is > 100 µM.
Turning to `CN(CCO)/N=N/c1nc[nH]c1C(N)=O`, the TGI is > 100 µM.
`CCOC(=O)C1Oc2ccc([N+](=O)[O-])cc2C1(C)O` (stereo unspecified): the TGI was > 100 µM.
The same measure, in the same setting: under `NCCCCCNOCCCN` stands > 100 µM; under `CC1=C(C(=O)NC(C)(C)C)CC(C(=O)NC(C)(C)C)C(C)N1` (stereo unspecified), > 100 µM; under `Cn1c(=O)sc2cc(C(=S)N3CCN(c4ccccc4)CC3)ccc21`, > 100 µM.
With `CC/C(=C\c1ccc(Cl)c(Cl)c1)[N+](=O)[O-]`, the TGI stood at 28.8 µM.
As for `O=C1C=C(OCCCl)C(=O)c2c(O)ccc(O)c21`, the TGI is 3.12 µM.
On the same count and under the same terms, the figure for `CCCCCCC(=O)OC[n+]1cccc(-c2c(COC(=O)NC(C)C)c(COC(=O)NC(C)C)c3n2CCC3)c1` is > 100 µM; for `O=C(NC1C=Nc2ccccc2NC1=O)c1ccccc1Cl` (stereo unspecified) it is > 100 µM.
`Cc1cc(-c2ccc(C(=O)C(c3ccccc3)(c3ccccc3)c3ccccc3)[nH]2)on1`: the TGI came out at 45 µM.
Take `Cn1c2ccccc2c2[nH]c3ccccc3c(=O)c21`: the TGI is > 100 µM.
Take `O=c1oc2c(ccc3c(O)cccc32)c2c1CCCC2`: the TGI was > 100 µM.
`O=C(O)CN=c1c2ccccc2n(O)c2ccccc12`: the TGI was > 100 µM.
As to `Cc1ccc(-n2cc(-c3ccc(Cl)cc3)c(C#N)c2N)cc1`, the TGI amounted to 36.8 µM.
Consider `NS(=O)(=O)c1ccc(N2N=C(c3cccs3)CC2c2ccccc2O)cc1` (stereo unspecified), for which the GI50 is 1.77 µM and the TGI came out at 11.8 µM.
`CC(=O)N(C)SCC(NC(=O)C(Cc1ccccc1)NC(=O)OCC1c2ccccc2-c2ccccc21)C(=O)NC(Cc1ccccc1)C(=O)NC(Cc1cn(C=O)c2ccccc12)C(=O)NC(CCCCNC(=O)OCC1c2ccccc2-c2ccccc21)C(=O)NC(C(=O)NC(CSN(C)C(C)=O)C(=O)NC(C(N)=O)C(C)O)C(C)O` (stereo unspecified) (Fmoc-F[X27]FW(For)K(Fmoc)T[X27]T-NH2; configuration not given here): the TGI was > 100 µM.
Take `COC(=O)CCC1(O)C=CC(=O)C=C1`: the TGI is > 100 µM.
